{"source": "PubChem BioAssay AID504332", "about": "(National Center for Advancing Translational Sciences (NCATS), 2011)", "note": "In all, about 350,000 compounds went through this assay and about 31,000 (8.9%) were called active. The inconclusive results got no clear call from the source; some entries with a clear call stand among them for comparison. Calls follow the shape of the dose curve; as a rule, active = well fitted inhibition curve with a large enough effect; inconclusive = small, poorly fitted or top-dose-only effect; inactive = no such curve, though single readings can be large or run the other way. Where the call is inconclusive, the potency comes from a doubtful curve fit. % is scaled to controls: 0 for no effect and ±100 for the full control effect; potency is read from the fitted curve at half-maximal effect; tags tell the direction and shape of the fitted curve.", "data": [{"molecular_target": "Histone-lysine N-methyltransferase EHMT2 (Homo sapiens) (UniProt Q96KQ7)", "sequence (Q96KQ7 whole entry, looked up)": "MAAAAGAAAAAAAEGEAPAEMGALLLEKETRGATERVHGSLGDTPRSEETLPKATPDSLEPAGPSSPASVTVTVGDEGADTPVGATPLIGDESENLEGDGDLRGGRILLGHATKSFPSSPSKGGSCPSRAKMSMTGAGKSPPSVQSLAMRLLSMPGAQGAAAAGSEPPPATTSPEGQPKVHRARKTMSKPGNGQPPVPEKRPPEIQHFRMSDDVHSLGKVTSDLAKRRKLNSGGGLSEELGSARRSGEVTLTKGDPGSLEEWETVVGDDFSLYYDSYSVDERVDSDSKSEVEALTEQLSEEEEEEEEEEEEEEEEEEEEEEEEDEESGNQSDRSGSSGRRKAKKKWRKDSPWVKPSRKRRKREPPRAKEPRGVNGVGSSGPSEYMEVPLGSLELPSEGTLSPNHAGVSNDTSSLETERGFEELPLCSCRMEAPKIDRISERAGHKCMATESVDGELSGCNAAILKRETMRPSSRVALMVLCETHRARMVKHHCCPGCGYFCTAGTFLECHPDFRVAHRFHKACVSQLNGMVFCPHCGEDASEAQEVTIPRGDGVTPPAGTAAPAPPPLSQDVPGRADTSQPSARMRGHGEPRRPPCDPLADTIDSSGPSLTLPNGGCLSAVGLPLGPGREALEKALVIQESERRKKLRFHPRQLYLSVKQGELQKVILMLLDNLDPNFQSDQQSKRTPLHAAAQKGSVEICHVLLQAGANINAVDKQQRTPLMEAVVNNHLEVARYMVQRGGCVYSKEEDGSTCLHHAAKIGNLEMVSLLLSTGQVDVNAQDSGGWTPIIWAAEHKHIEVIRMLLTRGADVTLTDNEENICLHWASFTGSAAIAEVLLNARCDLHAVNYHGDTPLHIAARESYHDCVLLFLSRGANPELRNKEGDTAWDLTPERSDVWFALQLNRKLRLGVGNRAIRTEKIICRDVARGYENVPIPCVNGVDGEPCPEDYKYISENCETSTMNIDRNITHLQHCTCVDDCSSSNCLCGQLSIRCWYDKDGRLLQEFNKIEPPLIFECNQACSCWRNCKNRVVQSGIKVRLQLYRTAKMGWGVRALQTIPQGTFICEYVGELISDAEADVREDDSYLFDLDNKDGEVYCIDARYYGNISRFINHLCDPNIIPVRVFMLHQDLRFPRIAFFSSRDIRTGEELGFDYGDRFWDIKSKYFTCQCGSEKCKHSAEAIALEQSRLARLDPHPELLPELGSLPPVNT", "test": "qHTS Assay for Inhibitors of Histone Lysine Methyltransferase G9a; also: nearly all actives have a fitted effect of over 75% in size", "conditions": "G9a H3K9 monomethylation, AlphaScreen, 2 h; activity, negative = inhibition: at 59 µM (top of the series) unless noted", "method_in_brief": "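AlphaScreen detection with an anti-monomethyl H3K9 antibody quantified product after a 2 h room-temperature reaction containing 500 nM biotinylated H3K9 peptide, 20 µM SAM and 20 nM enzyme, which had been preincubated 15 min with compound.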", "values": [{"smiles": "Cc1ccc(NC(=O)C(Cc2ccccc2)NS(=O)(=O)c2ccc3c(c2)oc(=O)n3C)cc1C", "note": "(stereo not drawn)", "activity, negative = inhibition": "inactive: 11.1%"}, {"smiles": "CCc1nnc(NS(=O)(=O)c2ccc(NC(=O)c3ccc(C#N)cc3)cc2)s1", "Potency": "inconclusive: 70.8 µM [inhibitor, partial curve]"}, {"smiles": "O=c1c2c3c(sc2nc2n1CCCC2)CCCCC3", "Potency": "inconclusive: 31.6 µM [inhibitor, full curve]"}, {"smiles": "Cc1nc2nc(COc3ccccc3)[nH]n2c(=O)c1C", "Potency": "inconclusive: 0.891 µM [inhibitor, full curve]"}, {"smiles": "CCOC(=O)C1=C(CC)OC(N)=C(C#N)C1c1cccs1", "note": "(stereo not drawn)", "Potency": "active: 50.1 µM"}, {"smiles": "COc1cccc(CN(C)CC(=O)NCc2ccc(C)cc2)c1", "Potency": "active: 14.1 µM"}, {"smiles": "COC(=O)c1cc(C(=O)OCC(=O)N2c3ccccc3NC(=O)C2(C)C)cc([N+](=O)[O-])c1", "activity, negative = inhibition": "inactive: -21.1% [at 102 µM]"}, {"smiles": "Cc1cccc(Nc2ncnc3ccccc23)c1", "Potency": "inconclusive: 63.1 µM [inhibitor, partial curve, poor fit]"}, {"smiles": "CN(C)c1ccc(C(=O)c2ccccc2C(=O)O)cc1[N+](=O)[O-]", "Potency": "inconclusive: 70.8 µM [inhibitor, partial curve, poor fit]"}, {"smiles": "COc1ccc(OCCCC(=O)Nc2nc(C)c(C(C)=O)s2)cc1", "activity, negative = inhibition": "inactive: 8.48% [at 0.501 µM]"}, {"smiles": "Cc1ccc(CC(=O)Nc2ccccc2N2CCOCC2)cc1C", "Potency": "inconclusive: 11.2 µM [inhibitor, partial curve, poor fit]"}, {"smiles": "O=C1COc2ccc(C(=O)COC(=O)c3ccc(Cl)cc3[N+](=O)[O-])cc2N1", "Potency": "active: 44.7 µM"}, {"smiles": "CC1(C)CC(=O)C(CC(=O)Nc2cc(C(F)(F)F)ccc2Cl)C(=O)C1", "activity, negative = inhibition": "inactive: -46.8% [at 102 µM]"}, {"smiles": "COc1ccc(OCCCC(=O)Nc2cc(S(=O)(=O)N3CCCCC3)ccc2OC)cc1", "Potency": "inconclusive: 35.5 µM [inhibitor, single point]"}, {"smiles": "Cc1c(C)n(C)c2ccc(C(=O)NCCCN3CCN(c4ccccc4F)CC3)cc12", "Potency": "active: 44.7 µM"}, {"smiles": "Cc1ccc(CCNC(=O)C(C)n2nc(C)c3c(C)n(-c4ccc(C)cc4)nc3c2=O)cc1", "note": "(stereo not drawn)", "Potency": "inconclusive: 6.31 µM [inhibitor, partial curve, poor fit]"}, {"smiles": "CCCCCCC(=O)Nc1cc2nc3c(nc2cc1C)c(=O)n(C)c(=O)n3C", "activity, negative = inhibition": "inactive: 29.2%"}, {"smiles": "CCCCn1c(C)cc2cc(O)ccc21", "activity, negative = inhibition": "inconclusive: -53.5% [inhibitor]"}, {"smiles": "C=CCn1c(Cc2cccs2)nnc1SCC(=O)NCc1ccco1", "Potency": "active: 44.7 µM"}, {"smiles": "CCN(CC)C(=S)NC(=O)c1ccc(F)cc1", "Potency": "inconclusive: 50.1 µM [inhibitor, partial curve, poor fit]"}, {"smiles": "Cc1cc(/C=C2\\SC(=S)N(Cc3ccco3)C2=O)c(C)n1-c1ccccc1", "Potency": "inconclusive: 4.47 µM [inhibitor, partial curve, poor fit]"}, {"smiles": "CCOC(=O)c1csc(-c2ccc([N+](=O)[O-])cc2)n1", "Potency": "inconclusive: 44.7 µM [inhibitor, partial curve]"}, {"smiles": "CCOc1cccc(/C=N/N2CCN(c3ccc(Cl)cc3)CC2)c1O", "activity, negative = inhibition": "inactive: -30.8% [at 102 µM]"}, {"smiles": "O=C(c1ccco1)N1CCN(C(=O)c2ccc(-c3ccccc3Cl)o2)CC1", "Potency": "inconclusive: 39.8 µM [inhibitor, single point]"}, {"smiles": "CCOC(=O)N1CCC(NC(=O)c2ccc3c(c2)N(Cc2ccc(F)cc2)C(=O)c2ccccc2S3=O)CC1", "note": "(stereo not drawn)", "activity, negative = inhibition": "inactive: -45.7%"}, {"smiles": "CC(=O)C1=C(O)C(=O)N(c2ccc(O)cc2)C1c1ccccc1", "note": "(stereo not drawn)", "Potency": "inconclusive: 89.1 µM [inhibitor, single point]"}, {"smiles": "CC(=O)n1cc([C@H]2C=C(C(=O)N3CCN(Cc4ccccc4)CC3)O[C@@H](OCCCCO)C2)c2ccccc21", "activity, negative = inhibition": "inconclusive: -80.9% [inhibitor]"}, {"smiles": "Cc1nc2c(-c3ccccc3)c(C)[nH]n2c(=O)c1Cc1ccc(Br)cc1", "activity, negative = inhibition": "inactive: 45.8%"}, {"smiles": "O=C(CSc1nnc2ccc(-c3cccnc3)nn12)Nc1cccc(F)c1", "Potency": "inconclusive: 12.6 µM [inhibitor, partial curve, poor fit]"}, {"smiles": "CCOc1ccc(NC(=S)Nc2cccc3cnccc23)cc1", "Potency": "inconclusive: 39.8 µM [inhibitor, single point]"}, {"smiles": "CC(C)CCOc1cccc(OCC(=O)N(C)C2CCS(=O)(=O)C2)c1", "note": "(stereo not drawn)", "Potency": "inconclusive: 79.4 µM [inhibitor, partial curve, poor fit]"}, {"smiles": "O=C(O)c1cccc(-n2cccc2/C=C2/NC(=O)N(c3ccc(Cl)cc3)C2=O)c1", "Potency": "active: 1.41 µM"}, {"smiles": "Cc1ccccc1NC(=O)C(NS(=O)(=O)c1ccc2c(c1)c(=O)n(C)c(=O)n2C)c1ccccc1", "note": "(stereo not drawn)", "Potency": "inconclusive: 89.1 µM [inhibitor, single point]"}, {"smiles": "C=CCN=C(NC#N)SCC(=O)c1cccc(OC)c1", "Potency": "inconclusive: 89.1 µM [inhibitor, single point]"}, {"smiles": "CSCC[C@H](NC(=O)C1CCN(C(=O)[C@H](Cc2ccccc2)NS(=O)(=O)c2ccc(C)cc2)CC1)C(=O)O", "Potency": "inconclusive: 89.1 µM [inhibitor, single point]"}, {"smiles": "CCc1ccc(NC2CC(=O)N(CCc3ccc(OC)c(OC)c3)C2=O)cc1", "note": "(stereo not drawn)", "Potency": "active: 50.1 µM"}, {"smiles": "CC1(C)OC(=O)N(Cc2ccco2)C1(C)O", "note": "(stereo not drawn)", "Potency": "inconclusive: 20 µM [inhibitor, single point]"}, {"smiles": "COc1cc2[nH]c(=S)nc(NCc3ccccn3)c2cc1OC", "Potency": "active: 50.1 µM"}, {"smiles": "Cc1nn(-c2ccccn2)c2c1C(c1ccsc1)C1=C(CCCC1=O)N2", "note": "(stereo not drawn)", "Potency": "inconclusive: 5.01 µM [inhibitor, single point]"}, {"smiles": "CCOC(=O)C1CCN(c2ncnc3cc(OC)c(OC)cc23)CC1", "Potency": "inconclusive: 70.8 µM [inhibitor, partial curve]"}, {"smiles": "COc1ccc(C2=NN(C(=O)c3cccc([N+](=O)[O-])c3)C(c3cccc([N+](=O)[O-])c3)C2)cc1", "note": "(stereo not drawn)", "Potency": "inconclusive: 70.8 µM [inhibitor, partial curve, poor fit]"}, {"smiles": "Cc1ccc(COn2c(-c3ccc(Cl)cc3Cl)nc3ncccc32)cc1", "Potency": "inconclusive: 56.2 µM [inhibitor, partial curve]"}, {"smiles": "NC(=S)n1[nH]c(-c2ccc([N+](=O)[O-])cc2)c(N=Nc2ccc(O)cc2)c1=O", "Potency": "active: 56.2 µM"}]}]}
